This series relates to ATP. Description: switch fluorescence ratio, 500 uM ATP over buffer (Cy3 cluster intensity, sum of 5 cycles each) (fold (ratio)); higher = stronger signal-on switching upon ATP binding; sequences stand for … in TCGTCGGCAGCGTCAGATGTGTATAAGAGACAGTTTTTTTTTTTTTTTTTTTTTTTTT…TC. The following applies: aptamer strand: ATP DNA aptamer (quencher-CACCTGGGGGAGTATTGCGGAGGAAGG + anchor), 100 nM annealed; ATP concentration: 500 uM; one replicate. The method in brief: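 Five buffer/ATP imaging cycles were run on Cy3-labelled switching-strand clusters on a modified Illumina MiSeq flow-cell, with NaOH stripping and re-annealing between cycles. In each cycle, clusters annealed to 100 nM quencher-labelled ATP aptamer were imaged in selection buffer, then after 15 min with 500 uM ATP at 22 °C. Per cluster, the fluorescence ratio is summed target-cycle over summed buffer-cycle Cy3 intensity, averaged per switch-domain sequence. Only clusters within 100-1000 RFU were kept.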

120 sequences from the supplement of paper PMC10126150 can be followed below.

Sequences with one replicate were seen in a single cluster, so their values are uncertain.
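Further: ATP exposure 15 min at 22 °C before imaging.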

Consider TTTATGCGTT, for which the switch fluorescence ratio was 1.09.

For the sequence CGTGTAAGTC, the switch fluorescence ratio worked out at 0.998. In the case of GACACAGT, the switch fluorescence ratio was 1. Next, AAATTTATCT: 0.969; CCTGTACTTA: 1.04. Then GCCATCGGCG, with 0.933. Next, TCCACGAAA: 1.19; TGCAGATGC: 1.07; AAACCTTTG: 1.38. As for TCGTTACTGC, the switch fluorescence ratio was determined as 1.03.

Regarding AAAGGAGCTA, the switch fluorescence ratio was determined as 1.07. Then CTTCGCGGCC, with 3.15; and TAAGATGGGT, with 1.01.

In the case of GGGAAGAACG, the switch fluorescence ratio was 0.962. Next, ACGTACGGAA: 1.47. Turning to ATGCCCATAT, the switch fluorescence ratio is 1.03.

For AGGGCTAAT, the switch fluorescence ratio came to 1.04.

In the case of ACACTAAGAC, the switch fluorescence ratio was found to be 1.14. Next, TGCACGCCGT: 1.07; CTTTGGTCTA: 0.971; CCATATAATG: 0.953.

Consider CGCAAAAGTA, for which the switch fluorescence ratio amounted to 2.57. Consider AGATTTGAAT, for which the switch fluorescence ratio was found to be 0.97. Then TATCATCCTA, with 0.999; and AGGTTTGGT, with 0.965. Then GATACTCTGA, with 0.99.

On to GCCTCGCGAC, for which the switch fluorescence ratio was found to be 2.13. Next, GCGGTAAAGC: 1.03. Then ATTCTAATCG, with 0.971. Next, TTCTAGTTTA: 1.01; ACTGATCTTC: 0.971.

In the case of TCGCGGGTTA, the switch fluorescence ratio turned out to be 1.01.

Consider GCTCGATCCC, for which the switch fluorescence ratio turned out to be 1.04.

As to GCTAGTGACT, the switch fluorescence ratio worked out at 0.985. ATCATCCTTA: the switch fluorescence ratio was 0.977.

In the case of AGCAAACAGG, the switch fluorescence ratio came out at 1.68. Then GGGACCCTGT, with 0.989; and TGCGAGTATG, with 0.977; and GACGTCCTTT, with 0.989. Next, GCAAGTCGCA: 0.973.

For CTGGGCGTTA, the switch fluorescence ratio was determined as 0.967. With TACCAAAGGG, the switch fluorescence ratio stood at 1.05. Next, TGTTTTACTT: 1.09. Then TCAAGCAGGA, with 1.02. Then CGCTGCTGTT, with 1.02; and ATCGAGGATT, with 1.02; and CACGAGGGTG, with 1.15.

Take GATCTGTAGG: the switch fluorescence ratio was determined as 0.992. Next, CTGGTAGGCA: 0.999. Regarding TATGGCTGGA, the switch fluorescence ratio amounted to 1.11.

For GCGTAACTCA, the switch fluorescence ratio amounted to 1.05. Next, TGGTGGTAGA: 0.989; TCCGTTATGA: 1.14; AAGGTAAATT: 1.02. Next, ACTGGCACAC: 1.26. Next, CTTGAAAG: 0.978; AGGCTAAACT: 1.03. Turning to ATTGAGCGT, the switch fluorescence ratio was 0.978. Then GTCGCTGTCT, with 1.03; and CGGCGTCATG, with 1.05. Then TTTTCCTCTC, with 1.06; and GCGGCAGCCG, with 0.984. Then GTTACGCGCG, with 0.98; and AACAGGGC, with 0.989; and AGAGCCTTAA, with 1.02. With CGAACCTGTG, the switch fluorescence ratio worked out at 1.05.

As to AGCTCAATAT, the switch fluorescence ratio was 1.17. For the sequence CCTGCGTCTC, the switch fluorescence ratio was 3.07.

Take TTTTGGTTA: the switch fluorescence ratio was determined as 0.992. Then GTGGGTGCTT, with 1.01; and AGTCGGCCAT, with 0.991. Next, ATCGTGAGCG: 0.953; TAATCGATGT: 1.02. TGTCTACCGG: the switch fluorescence ratio amounted to 1.05. Next, CTAGCTCTTG: 1.03; GCAGAAGGAG: 0.993; GGTCCGGTGC: 1.26.

Regarding GTAGGGCCAT, the switch fluorescence ratio amounted to 1.01.

For CTTACTACAT, the switch fluorescence ratio came to 1.07. Take GGACAGTCGA: the switch fluorescence ratio was 0.971.

On to ACGTGGTGGC, for which the switch fluorescence ratio stood at 0.969. Then TACATTGCAT, with 1.01; and AGATCCGGT, with 0.996; and CGCTGCAAGA, with 2.23. Then TCCTGTTAAT, with 0.895. Then AGAGGGAAA, with 1.01; and TATAACAGCG, with 1.02. Take GGGATAATCA: the switch fluorescence ratio came out at 0.975. Then TATCACACGG, with 1.03; and GGCGATCTGC, with 1.

As to AACTGTCCCG, the switch fluorescence ratio amounted to 1.01. Then CGCCTAGTCT, with 1.01; and AAAGTCCGGC, with 1.04; and ATCCTTCCGG, with 1.79. Then ACTAAGTGTG, with 0.983; and CTAATTTGGC, with 0.927; and GGATCTATG, with 1.01. Next, TGGAGACAGT: 0.979. For GACAATAAAT, the switch fluorescence ratio amounted to 1.06.

With CGAGAGCATA, the switch fluorescence ratio was 2.44.

With ACTATCGCGA, the switch fluorescence ratio worked out at 1.12. On to ACCCCACGGA, for which the switch fluorescence ratio was found to be 1.46.

With TGCTTGGCCG, the switch fluorescence ratio was 1.02. For CTTTTGTAAC, the switch fluorescence ratio turned out to be 1.01.

Take GGTAAGGAGC: the switch fluorescence ratio is 1. Next, CCGTCTGGAA: 1.04. As to GGATGAAGCG, the switch fluorescence ratio was 0.999. Next, GATCCCGGTT: 1.02; CGGCGTTTGT: 0.994. Then GATGGGGATC, with 1.01. AGGGGGCCAC: the switch fluorescence ratio was 1.04.

Consider CTGTGAGCAG, for which the switch fluorescence ratio was found to be 1.07. Next, CCTGAGCAGC: 1.78; ACATCCCTGC: 1.06; ATAGGGTATG: 0.997. For TTCAAAACGG, the switch fluorescence ratio amounted to 1.04.

Regarding TTTACACATT, the switch fluorescence ratio is 1.13. Then AGAAGCCCAG, with 1.02; and GTATGAGAGC, with 1.03; and CCAGACGTAA, with 2.88.
